# Assay results published in the supplement of paper PMC3334620.
# The full ranking holds about 33,000 sequences; the median of “E-score (-0.5 to 0.5)” is about -0.035, and the highest 2% start at about 0.34. The list shows a part of the results.
# Target: T1, Mot3 (UniProt P54785)
# T1 sequence: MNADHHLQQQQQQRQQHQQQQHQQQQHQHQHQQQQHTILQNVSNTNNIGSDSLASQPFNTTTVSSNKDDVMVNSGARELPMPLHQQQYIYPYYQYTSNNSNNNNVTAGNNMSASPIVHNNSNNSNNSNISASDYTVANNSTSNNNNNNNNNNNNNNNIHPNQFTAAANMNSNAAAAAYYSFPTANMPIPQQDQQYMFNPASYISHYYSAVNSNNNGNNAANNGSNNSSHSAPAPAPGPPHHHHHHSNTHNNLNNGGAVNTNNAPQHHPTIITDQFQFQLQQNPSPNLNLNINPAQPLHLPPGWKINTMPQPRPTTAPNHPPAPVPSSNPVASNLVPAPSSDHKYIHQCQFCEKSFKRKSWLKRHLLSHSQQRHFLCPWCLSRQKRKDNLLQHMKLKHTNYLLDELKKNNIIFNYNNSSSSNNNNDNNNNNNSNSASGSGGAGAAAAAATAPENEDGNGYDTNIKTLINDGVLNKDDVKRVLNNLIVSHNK
# Assay: PBM E-score (8-mer binding enrichment) (E-score (-0.5 to 0.5)); higher = stronger / more preferred TF binding; most listed sequences are background and not binding sites
# Details: protein concentration: 200 nM; construct: GST-full length
# Description: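 Universal 'all 10-mer' protein binding microarrays (Agilent AMADID 015681) probed with GST-tagged S. cerevisiae TFs (full-length or DBD) made by in vitro transcription/translation (PURExpress), about 100-200 nM. Bound TF was detected with fluorescent anti-GST. Each ungapped 8-mer (which stands for itself and its reverse complement) is scored by the PBM enrichment score (E-score), a modified Wilcoxon-Mann-Whitney statistic from -0.5 to +0.5, computed with the Universal PBM Analysis Suite. Scale: above 0.35 generally sequence-specific binding.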
row,Sequence,PBM E-score
1,CTGATCGC,-0.132
2,AATGAGTG,0.0115
3,ATGCGGTC,-0.0067
4,ACATCTCG,-0.0334
5,AGGCATTC,0.255
6,CCTGCTAG,0.14
7,AAGGATGC,0.116
8,GACGCAAA,-0.0731
9,GCTGACTA,-0.147
10,TAATATAA,0.176
11,GAAGCGCC,-0.121
12,ACTATGCA,0.0508
13,TAGCTTAA,-0.0485
14,GGCGTCTA,0.00538
15,TTAGACAA,0.0947
16,GGTTGTGA,-0.111
17,AAGATGTG,0.0946
18,ACGCCCAC,-0.134
19,GGACTACC,-0.349
20,TCCAAAGA,0.0729
21,CTACTGAG,-0.175
22,CCTCAATA,-0.115

row,Sequence,PBM E-score
1,ATTACTGA,0.216
2,ACGCACCG,0.0838
3,CGTTGCGA,0.041
4,GCGCTGAA,-0.242
5,ATGACCTG,-0.0714
6,AAGAAAAA,0.0945
7,GAGTACCA,0.0202
8,AGGTGTAC,0.0888
9,AGTTCCAT,-0.038
10,AAACACCT,0.0867
11,TATCGTGA,-0.0512
12,CCTTATAC,0.144
13,CAGTCACG,0.335
14,CCTGGTAG,-0.101
15,GGTAACAC,0.258
16,CCGGTGCG,-0.0852
17,CAGTGGTC,-0.168
18,GGTCCTGA,-0.159
19,CACACCGG,-0.0495
20,CACACGCA,0.127
21,CCTAAGCC,-0.15
22,CAAACCAG,-0.049

row,Sequence,PBM E-score
1,CCCGAACC,-0.0412
2,ACAGCTTG,0.0423
3,ACTCCACT,-0.107
4,CTGCCAGA,-0.171
5,ATATACCG,0.0394
6,CGCAGCTA,-0.244
7,AGTACACC,0.052
8,CTTTCACC,-0.00668
9,TAATGCGA,0.094
10,CTGCTGGC,-0.257
11,AAATATTT,0.137
12,CCACTCTA,-0.138
13,AATTTTCA,0.121
14,GACACTCA,-0.124
15,ACCGTCCG,-0.375
16,AATCCGGT,-0.156
17,CGATGGCG,-0.115
18,CAGGGGAC,-0.307
19,ACCTCCCG,-0.249
20,TATCTGCA,-0.176
21,CTTCACCC,-0.126
22,AAATTCTT,-0.0697

row,Sequence,PBM E-score
1,TACAAGGA,0.33
2,GGCTCCTA,-0.00542
3,ATGTAATA,0.405
4,TTGAGAAA,-0.0424
5,GCGGACCA,-0.18
6,CTGTGGAA,0.0451
7,CAAGATCG,0.0649
8,CTGTAAGC,-0.0275
9,GGTGCATA,-0.129
10,GCTAATCC,-0.0829
11,CACTGGGC,-0.147
12,AACGTCGC,0.0102
13,AAGCCGGA,-0.0693
14,CTTGAACA,0.0396
15,CAAGAGCC,-0.155
16,ACGCTGCC,-0.0716
17,ATTGGCAG,-0.0716
18,CAGCAAAG,-0.134
19,TATCTTGA,0.0695
20,GTCTCGAA,-0.111
21,AGTCTCTC,-0.267
22,AAACAATA,0.131

row,Sequence,PBM E-score
1,CAGCCCGC,-0.251
2,ACGTGCAA,0.133
3,GTTACGAA,0.113
4,GAAACCAC,-0.0434
5,TGCGCTAA,0.139
6,GCCGTTCC,0.111
7,CAAACACG,0.249
8,GACTAGAC,-0.0722
9,GCTCTTTA,-0.142
10,ACATTTAT,0.142
11,ATAAATGG,-0.167
12,CGGGATTA,-0.0775
13,ATGACGAG,-0.207
14,GCAACCCC,-0.0374
15,ACTGAGAA,-0.101
16,ACGGACTC,-0.159
17,ATCGTCAA,0.112
18,CACCTTAG,-0.123
19,AGCATTAG,-0.0753
20,ATCGTTGA,-0.0591
21,AAACGGTA,-0.0775
